AUC and IC50 data for 50 cell lines are collected here from the supplement of paper PMC4967469.

By IC50 is meant the dose at which the fit gives 50% viability; a fit beyond the top or the lowest dose is shown as a bound at that dose. For AUC the same curve is integrated over the 256-fold range of doses and scaled to a fraction; the more sensitive the line, the further below 1. A top dose marked as inferred is not printed in the source and was worked back from the curve model. A value given as a limit tells only on which side of the number the result lay.

Compound in this test: N.N.[Cl][Pt][Cl] [Cisplatin]
Kind of test: Viability of human cancer cell lines after 72 h of drug (GDSC screen). Particulars: top dose inferred. How it is done: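 Human cancer cell lines in 384-well plates, medium with 10% serum, drug for 72 h over a 256-fold dose range (nine 2-fold or five 4-fold steps up to the top dose). Adherent lines were fixed and stained with the nucleic acid dye Syto60, suspension lines read with resazurin; signal relative to control wells, capped at 0 and 100%. One two-parameter sigmoid per drug and line, fitted in a mixed model over all curves with the slope shared within a line.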
Take “SK-MEL-31 (melanoma, adherent, top dose 10 µM)”: the AUC worked out at 0.926 and the IC50 was more than 10 µM.

Turning to “SK-MG-1 (glioma, adherent, top dose 10 µM)”, the AUC stood at 0.825 and the IC50 stood at 6.11 µM.

Turning to “SK-MM-2 (myeloma, suspension, top dose 10 µM)”, the AUC was 0.981 and the IC50 is more than 10 µM.

Regarding “SK-N-AS (neuroblastoma, adherent, top dose 10 µM)”, the AUC stood at 0.864 and the IC50 is more than 10 µM.

Take “SK-N-DZ (neuroblastoma, adherent, top dose 10 µM)”: the AUC stood at 0.892 and the IC50 was more than 10 µM.

Take “SK-N-FI (neuroblastoma, adherent, top dose 10 µM)”: the AUC was 0.976 and the IC50 was more than 10 µM.

Consider “SK-N-SH (neuroblastoma, adherent, top dose 10 µM)”, for which the AUC came to 0.843 and the IC50 came out at 7 µM.

Regarding “SK-OV-3 (ovary, adherent, top dose 10 µM)”, the AUC worked out at 0.946 and the IC50 was more than 10 µM.

As for “SK-PN-DW (Ewing sarcoma, adherent, top dose 10 µM)”, the AUC stood at 0.6 and the IC50 worked out at 1.19 µM.

On to “SK-UT-1 (soft tissue, adherent, top dose 10 µM)”, for which the AUC is 0.897 and the IC50 is more than 10 µM.

On to “SKG-IIIa (cervix, adherent, top dose 10 µM)”, for which the AUC stood at 0.803 and the IC50 was found to be 7.06 µM.

For the cell line SKN (uterus, adherent, top dose 10 µM), the AUC is 0.836 and the IC50 came to 8.71 µM.

With “SKN-3 (head and neck, adherent, top dose 10 µM)”, the AUC amounted to 0.794 and the IC50 turned out to be 5.54 µM.

Turning to “SLVL (B-cell lymphoma, suspension, top dose 10 µM)”, the AUC was 0.859 and the IC50 came to 9.13 µM.

As to “SNB75 (glioma, adherent, top dose 10 µM)”, the AUC is 0.925 and the IC50 was more than 10 µM.

“SNG-M (endometrium, adherent, top dose 10 µM)”: the AUC was 0.951 and the IC50 is more than 10 µM.

With “SNU-61 (large intestine, adherent, top dose 6 µM)”, the AUC was 0.956 and the IC50 is more than 6 µM.

Turning to “SNU-81 (large intestine, adherent, top dose 10 µM)”, the AUC turned out to be 0.948 and the IC50 is more than 10 µM.

As to “SNU-182 (liver, adherent, top dose 10 µM)”, the AUC is 0.794 and the IC50 was determined as 4.83 µM.

Regarding “SNU-387 (liver, adherent, top dose 10 µM)”, the AUC worked out at 0.903 and the IC50 was more than 10 µM.

“SNU-407 (large intestine, adherent, top dose 10 µM)”: the AUC came to 0.902 and the IC50 was more than 10 µM.

For “SNU-423 (liver, adherent, top dose 10 µM)”, the AUC was 0.955 and the IC50 is more than 10 µM.

For the cell line “SNU-449 (liver, adherent, top dose 10 µM)”, the AUC was determined as 0.957 and the IC50 is more than 10 µM.

On to “SNU-C1 (large intestine, suspension, top dose 10 µM)”, for which the AUC is 0.98 and the IC50 was more than 10 µM.

Regarding “SNU-C2B (large intestine, adherent, top dose 10 µM)”, the AUC was determined as 0.932 and the IC50 was more than 10 µM.

For “SNU-C5 (large intestine, adherent, top dose 10 µM)”, the AUC was 0.896 and the IC50 is more than 10 µM.

On to “SR (lymphoid neoplasm, suspension, top dose 10 µM)”, for which the AUC was found to be 0.821 and the IC50 stood at 5.04 µM.

Turning to “ST486 (Burkitt lymphoma, suspension, top dose 10 µM)”, the AUC turned out to be 0.99 and the IC50 was more than 10 µM.

Consider “STS-0421 (soft tissue, adherent, top dose 10 µM)”, for which the AUC amounted to 0.892 and the IC50 was more than 10 µM.

For the cell line “SU8686 (pancreas, adherent, top dose 10 µM)”, the AUC came out at 0.879 and the IC50 was more than 10 µM.

As for “SU-DHL-4 (B-cell lymphoma, suspension, top dose 10 µM)”, the AUC was determined as 0.997 and the IC50 was more than 10 µM.

As for “SU-DHL-5 (B-cell lymphoma, suspension, top dose 10 µM)”, the AUC was 0.857 and the IC50 is 5.15 µM.

For “SU-DHL-6 (B-cell lymphoma, suspension, top dose 10 µM)”, the AUC was 0.965 and the IC50 was more than 10 µM.

As for “SU-DHL-16 (B-cell lymphoma, suspension, top dose 10 µM)”, the AUC was 0.982 and the IC50 was more than 10 µM.

As for “SUIT-2 (pancreas, adherent, top dose 10 µM)”, the AUC was determined as 0.825 and the IC50 was found to be 6.37 µM.

“SUP-B8 (B-cell leukaemia, suspension, top dose 10 µM)”: the AUC is 0.979 and the IC50 is more than 10 µM.

Turning to “SUP-B15 (lymphoblastic leukaemia, suspension, top dose 10 µM)”, the AUC was determined as 0.8 and the IC50 was found to be 4.62 µM.

Turning to “SUP-HD1 (Hodgkin lymphoma, suspension, top dose 10 µM)”, the AUC was found to be 0.891 and the concentration for half-maximal inhibition (IC50) is more than 10 µM.

As to “SUP-M2 (anaplastic large cell lymphoma, suspension, top dose 10 µM)”, the AUC was determined as 0.784 and the IC50 was 3.22 µM.

Take “SUP-T1 (T-cell lymphoblastic leukaemia, suspension, top dose 10 µM)”: the AUC amounted to 0.973 and the IC50 is more than 10 µM.

For “SW13 (adrenal gland, adherent, top dose 10 µM)”, the AUC is 0.897 and the IC50 is more than 10 µM.

Consider “SW48 (large intestine, adherent, top dose 10 µM)”, for which the AUC turned out to be 0.883 and the IC50 is more than 10 µM.

As for “SW620 (large intestine, adherent, top dose 10 µM)”, the AUC is 0.857 and the IC50 is 6.67 µM.

As for SW626 (ovary, adherent, top dose 10 µM), the AUC is 0.945 and the IC50 was more than 10 µM.

Take “SW684 (fibrosarcoma, adherent, top dose 10 µM)”: the AUC worked out at 0.982 and the IC50 was more than 10 µM.

As for “SW756 (cervix, adherent, top dose 10 µM)”, the AUC was 0.836 and the IC50 was determined as 8.51 µM.

Regarding “SW780 (bladder, adherent, top dose 10 µM)”, the AUC stood at 0.883 and the IC50 was more than 10 µM.

Regarding “SW948 (large intestine, adherent, top dose 10 µM)”, the AUC worked out at 0.96 and the IC50 was more than 10 µM.

In the case of “SW954 (urogenital system, adherent, top dose 10 µM)”, the AUC stood at 0.889 and the IC50 is more than 10 µM.

As for “SW962 (urogenital system, adherent, top dose 10 µM)”, the AUC came out at 0.933 and the IC50 was more than 10 µM.

Usually IC50 stands for the concentration needed to halve the response being measured.
